According to a collection of fitness landscapes (doi:10.1016/j.celrep.2020.107928):
The full ranking holds about 81,000 sequences; the median of “one-hybrid fitness for binding parS DNA” is about -0.17, and the highest 2% start at about 0.51. This is one part of the list.

B1: Caulobacter ParB omega fusion; a variant is named by its letters at X, in order, B8GW30 (parent)
chain: MESVVVGEPGMSEGRRGLGRGLSALLGEVDAAPAQAPGEQLGGSREAPIEILQRNPDQPRRTFREEDLEDLSNSIREKGVLQPILVRPSPDTAGEYQIVAGERAWRAAQRAGLKTVPIMVRELDDLAVLEIGIIENVQRADLNVLEEALSYKVLMEKFERTQENIAQTIGKSXSHVANXMRLLXLPDEVQSYLVSGELTAXHARAIAAAADPVALAKQIIEGGLSVRETEALARKAPNLSAGKSKGGRPPRVKDTDTQALESDLSSVLGLDVSIDHRGSTGTLTITYATLEQLDDLCNRLTRGI

Variants of: B1
Test: one-hybrid fitness for binding parS DNA (scaled: cognate 1, non-cognate 0); higher = stronger binding
Details: with parS DNA site
Method in brief: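 On M9-minus-histidine containing 0.1 mM IPTG and 5 mM 3-AT, E. coli USO cells with a HIS3 reporter, site 19 bp from the promoter, grew 48 hours at 37°C to select Caulobacter ParB libraries randomised at four specificity codons. Plasmids from before and after were Illumina-sequenced, with three replicate libraries pooled and variants under 10 reads left out. Fitness is the log change in variant-to-wild-type read ratio, rescaled against cognate and non-cognate.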

one-hybrid fitness for binding parS DNA, 0.322:
RMPY

one-hybrid fitness for binding parS DNA, 1:
RIQC

one-hybrid fitness for binding parS DNA, 0.633:
RMCA

one-hybrid fitness for binding parS DNA, 0.369:
MGHQ

one-hybrid fitness for binding parS DNA, 0.936:
RNKS

one-hybrid fitness for binding parS DNA, 0.682:
RKPS

one-hybrid fitness for binding parS DNA, 0.279:
RLYW

one-hybrid fitness for binding parS DNA, 0.353:
GKGD

one-hybrid fitness for binding parS DNA, 0.234:
RMYH

one-hybrid fitness for binding parS DNA, 0.529:
RNNA

one-hybrid fitness for binding parS DNA, 0.96:
RLHS

one-hybrid fitness for binding parS DNA, 0.263:
RGQY

one-hybrid fitness for binding parS DNA, ≤ 0.2:
DLFR
LERS
RRCM
ISLC
TRSG
HQWY
EHAG
AAIR
KFER
HKVT
MQPF
CCSG
VWIT
PQHC
SKRI
SEAE
PVYE
QSQV
NCTD
CTSI
GSAT
ADHY
RQVL
LSNV
QTCK
FQRN
VLMV
SNPC
THMM
MIQC
SKRC
QPPM
VIYV
RTGL
TALR
SMLW
ITDL
PKPY
QVNR
SAWW
TIPH
ALRW
YPQI
GCSW
APFW
RGTE
TKSL
PHAN
KRCE
IVAR
HKVR
GDDR
AVFS
WSIM
SHAG
KPPT
DIQM
TFPR
RTIP
IWST
GHTR
QKWT
YAHS
GPVL
HANM
RPCN
RLVR
VLKN
CLRN
ARMN
CFPG
PQPD
AEKT
SSLK
THLT
EQAT
NEMT
PRAS
MNMN
MSTG
GFYS
VPTI
QCCI
SAQL
CTTK
KINR
KMPT
PPRY
PITI
NMFR
NTSI
PSNM
AWIY
DLNL
SRSL
TDCL
KQKY
AYNA
CTHL
PLTY
TRHF
ELAY
AEIT
DKYI
CLPR
SLYY
GSGE
QGRF
RQLD
NTCW
GYFG
DPGV
LIKI
WMLG
DQYS
GSTW
RSEE
MLWM
TDSV
HNLN
QTVW
FCTG
QDLW
LHAW
MVPT
QSLS
LILI
DSER
TPWV
CVKL
ASSH
TKFL
SFYT
KKSV
DQTP
PAGN
PFHI
QAKE
ILDS
LIYY
NQKG
QKNY
DYEI
KADV
IGTC
PPWL
RNFK
AIVF
IACM
YDLL
LTPL
LRHV
RSKR
DKVC
NMNR
TGPG
FMTN
HHDS
VRRC
SRIQ
PPPS
LHKL
EAFW
YLQA
QAGN
GERN
PRRK
NVYG
TGAD
RVID
LSQE
NKTI
QLVY
LKPS
PDLY
SFTH
SDQS
NVDE
TESQ
HREV
MEYG
EGLW
SSRQ
SGPE
TYRS
IAAY
RNQK
QFGR
VCLY
QTLF
YRGM
QRQT
SCYS
PWWS
DIWR
IDCR
APQK
ILTR
EKCR
KWNC
KRSA
GKKV
TIKL
TTIN
VKVQ
IQAD
TLPF
GKYT
PRNY
NVPV
LCYR
LKLD
FSML
IPTT
PHHM
FPRN
HAAT
FGQT
PQTR
LFKI
WCKK
YIPR
YGMS
WQRT
MTVE
FHGL
VSSY
LTPS
RLDW
IAER
ITHG
IKRY
HTFS
VGHS
WLYS
YKHG
YGSR
IYKA
SPRY
KEYR
IIRP
HLMV
TREV
CPAV
DVAG
DSNL
HKQR
YIKS
SQER
SVTL
QIER
ASIS
MQAR
TEHG
MYDS
QVAC
PCTE
SGQW
TREM
YHKA
REYD
WFRY
LHNG
QWTV
PLYY
IQNG
HNME
LSHL
LALV
NNAW
EHVA
LHGA
MGDG
GLTH
NEMI
THDN
THHW
CCMG
GKMS
KRNS
NIEL
EQCR
PSFL
IWRT
KIYF
KSMS
TANR
TTWY
ATEC
DGPC
YMKC

one-hybrid fitness for binding parS DNA, 0.608:
RISA

one-hybrid fitness for binding parS DNA, 0.966:
RSSC

one-hybrid fitness for binding parS DNA, 0.32:
AHDP
